# In the supplement of paper PMC3334620:
# Whole data set: some 33,000 sequences, median “E-score (-0.5 to 0.5)” near -0.035, cut for the highest 2% near 0.35. Some of the results follow.
# Target: T1, Pdr3 (UniProt P33200)
# T1 sequence: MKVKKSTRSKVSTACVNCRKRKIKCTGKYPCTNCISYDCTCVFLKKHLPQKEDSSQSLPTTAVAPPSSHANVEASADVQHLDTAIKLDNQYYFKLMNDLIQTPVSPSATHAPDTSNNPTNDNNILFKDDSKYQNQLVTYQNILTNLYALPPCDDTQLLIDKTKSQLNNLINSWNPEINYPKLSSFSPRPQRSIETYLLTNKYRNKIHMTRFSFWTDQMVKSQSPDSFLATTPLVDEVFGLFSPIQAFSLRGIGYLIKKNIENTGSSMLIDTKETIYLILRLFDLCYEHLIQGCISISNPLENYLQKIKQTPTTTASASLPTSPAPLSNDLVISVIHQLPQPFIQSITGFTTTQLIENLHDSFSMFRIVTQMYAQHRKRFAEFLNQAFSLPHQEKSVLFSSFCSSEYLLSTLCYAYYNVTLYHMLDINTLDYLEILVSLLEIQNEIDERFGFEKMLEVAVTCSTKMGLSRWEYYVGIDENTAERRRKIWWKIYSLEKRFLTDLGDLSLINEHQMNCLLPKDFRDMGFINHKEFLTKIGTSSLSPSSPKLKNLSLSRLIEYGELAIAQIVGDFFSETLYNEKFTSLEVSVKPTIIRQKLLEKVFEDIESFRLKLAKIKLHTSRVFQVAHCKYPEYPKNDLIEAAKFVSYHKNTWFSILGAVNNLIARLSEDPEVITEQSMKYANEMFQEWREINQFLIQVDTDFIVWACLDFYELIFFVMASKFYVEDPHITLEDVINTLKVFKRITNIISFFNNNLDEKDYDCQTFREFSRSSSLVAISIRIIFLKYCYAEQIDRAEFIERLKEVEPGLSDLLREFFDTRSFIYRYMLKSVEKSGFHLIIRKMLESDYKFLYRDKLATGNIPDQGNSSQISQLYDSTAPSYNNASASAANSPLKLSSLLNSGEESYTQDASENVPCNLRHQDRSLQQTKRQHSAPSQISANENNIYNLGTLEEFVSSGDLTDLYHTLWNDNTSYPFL
# Assay: PBM E-score (8-mer binding enrichment) (E-score (-0.5 to 0.5)); higher = stronger / more preferred TF binding; most listed sequences are background and not binding sites
# Conditions: protein concentration: 200 nM; construct: GST-full length
# Outline: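 Using PURExpress in vitro transcription/translation, GST-tagged yeast transcription factors were made in full-length or DNA-binding-domain form. These were applied at about 100-200 nM to double-stranded universal all-10-mer Agilent arrays, and bound protein was detected with fluorescent anti-GST. Scans were normalised with masliner before the Universal PBM Analysis Suite assigned E-scores to ungapped eight-base words pooled with their reverse complements.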
row,Sequence,PBM E-score
1,AACCTGAC,-0.164
2,AGACCTCA,-0.203
3,AACAGGAT,-0.138
4,GGGCCAAC,0.0579
5,CTTTGGCA,-0.198
6,AAAAGGAA,0.0494
7,GACTCTGC,-0.0756
8,GGAATGTA,0.339
9,CTACCTAA,-0.111
10,AGCTGGAC,-0.145
11,AAAACTAC,0.179
12,CATGGCTC,-0.0277
13,GGTCAAAA,-0.0928
14,CCCAGGGC,-0.142
15,CATGTGAA,-0.102
16,CCAATGTC,-0.165
17,ACCGGACC,0.297
18,GCTACTTA,-0.383
19,ACTAACGG,0.208
20,ATGGCGTA,-0.0752
21,GATAACAA,0.0187
22,GAAGACTA,-0.133
23,GATGGCCC,0.0774
24,ACCGACCT,0.00582

row,Sequence,PBM E-score
1,CTCCACGC,-0.165
2,CCCTAGTA,-0.0527
3,CATGGTGA,-0.149
4,GCGTCCCC,-0.159
5,AGGGTGGC,-0.099
6,CGCTCGAG,0.0754
7,CTACTCCA,-0.162
8,GACTGAGA,-0.16
9,ACTCGCCT,-0.0619
10,GGACGCAC,0.0958
11,GTAGAATA,-0.017
12,TCCACGCA,-0.174
13,ACGTGACG,-0.0262
14,CTAGCAAC,-0.0643
15,CACGGAAA,0.449
16,ATCACAAT,-0.0706
17,TAGATGGA,-0.233
18,GAGTCCGC,0.248
19,AAGCCAGA,-0.0207
20,AACCTAAT,-0.0203
21,ACTACCGA,-0.0714
22,ATTCCGCG,0.479
23,AATATGAA,0.146
24,CTGCCTGA,0.0159

row,Sequence,PBM E-score
1,CAGCTCGG,0.255
2,ACACGAAT,0.0887
3,GTATCGGA,0.326
4,AATTCAAA,-0.121
5,ACCAAGGG,-0.172
6,GGGTGTAA,-0.0157
7,AGGGTGCC,-0.244
8,GGTCGCGA,0.201
9,ATAGTCAA,-0.151
10,GTGACATA,0.0765
11,CTCCAGAG,-0.0543
12,CCTCCTAG,-0.0995
13,AGGACTGG,-0.184
14,CCACAGCC,-0.0745
15,CCCAGTCC,0.0107
16,CCCACTGA,-0.0507
17,CACAAAGG,-0.09
18,AGCAGACA,-0.21
19,ACGGACAT,0.351
20,GTGCTTAA,-0.0262
21,CCAGAAGG,-0.0321
22,ACATTTTC,0.203
23,GACCTCCC,0.0331
24,TAGGATAA,-0.0443

row,Sequence,PBM E-score
1,CGCTAACC,-0.00491
2,ATCGTCAC,-0.129
3,TCGGGGCA,0.151
4,TCATCGGA,0.279
5,ACCTAATA,0.0374
6,GGACATGA,0.185
7,ATCCTAAA,-0.297
8,ACAACTAA,0.0577
9,GCAAGTCA,-0.0335
10,ACTGACAA,-0.0515
11,TAGCGACA,-0.171
12,CACCAGAG,-0.137
13,AGTTTTAG,-0.128
14,GTTACTTA,-0.0658
15,GCGCCCGA,0.214
16,AAGACGCA,-0.105
17,AGGAAGAC,-0.246
18,ACACGATG,-0.116
19,GGTATAAC,-0.0726
20,ACGCCTCA,-0.143
21,ATCGGCGC,0.178
22,GCATTAAC,0.103
23,AAATAAGG,0.0971
24,AGCTCCAC,0.0117
